Measured values: PMC4336329 (PLoS ONE, 2015)
Among all 310,000 compounds or so, about 2,200 (0.71%) showed an effect of 50% or more. Effects have a minus sign here. The list shows a part of the results.

Target: human ether-à-go-go-related gene (hERG) potassium channel (human, UniProt Q12809)
Experiment: primary screen, population patch clamp on CHO cells stably expressing hERG

Chain of human ether-à-go-go-related gene (hERG) potassium channel (Q12809 whole entry, looked up): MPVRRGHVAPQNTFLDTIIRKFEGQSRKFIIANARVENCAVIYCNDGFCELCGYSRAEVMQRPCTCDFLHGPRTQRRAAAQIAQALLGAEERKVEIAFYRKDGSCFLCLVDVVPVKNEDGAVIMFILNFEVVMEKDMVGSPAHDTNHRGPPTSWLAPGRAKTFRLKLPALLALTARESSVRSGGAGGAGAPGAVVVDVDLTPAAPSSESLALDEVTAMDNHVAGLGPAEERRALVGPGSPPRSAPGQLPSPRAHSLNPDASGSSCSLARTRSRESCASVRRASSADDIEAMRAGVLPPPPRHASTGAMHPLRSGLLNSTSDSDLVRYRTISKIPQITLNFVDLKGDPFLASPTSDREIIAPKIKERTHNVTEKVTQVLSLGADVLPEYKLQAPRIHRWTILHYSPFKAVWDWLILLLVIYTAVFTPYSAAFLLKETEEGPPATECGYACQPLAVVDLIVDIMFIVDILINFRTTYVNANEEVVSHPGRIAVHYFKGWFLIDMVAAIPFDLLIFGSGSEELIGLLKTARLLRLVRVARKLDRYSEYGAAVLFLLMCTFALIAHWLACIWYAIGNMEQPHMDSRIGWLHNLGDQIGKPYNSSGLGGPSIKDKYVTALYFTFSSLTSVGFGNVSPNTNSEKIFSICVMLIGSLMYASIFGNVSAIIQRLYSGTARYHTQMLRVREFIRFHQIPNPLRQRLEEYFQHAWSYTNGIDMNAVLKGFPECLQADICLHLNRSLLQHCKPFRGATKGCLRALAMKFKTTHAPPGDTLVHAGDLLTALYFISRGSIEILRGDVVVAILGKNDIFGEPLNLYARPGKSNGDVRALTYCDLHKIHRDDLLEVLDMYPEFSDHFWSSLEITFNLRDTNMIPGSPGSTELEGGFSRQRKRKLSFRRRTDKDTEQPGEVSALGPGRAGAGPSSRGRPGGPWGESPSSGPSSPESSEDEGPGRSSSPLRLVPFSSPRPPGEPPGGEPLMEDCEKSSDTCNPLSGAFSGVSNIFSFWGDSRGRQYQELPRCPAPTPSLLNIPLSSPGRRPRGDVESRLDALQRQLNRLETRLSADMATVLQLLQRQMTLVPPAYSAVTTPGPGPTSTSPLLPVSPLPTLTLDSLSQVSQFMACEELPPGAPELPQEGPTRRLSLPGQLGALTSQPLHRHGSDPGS

| Structure (SMILES) | hERG current change (%, negative = inhibition) at 1uM |
| --- | --- |
| COc1ccc(NC(=O)c2cc(-c3cc(Cl)ccc3O)n[nH]2)c(OC)c1 | 13% |
| Cc1ccccc1-c1ccc(C(=O)Nc2cccc(F)c2)o1 | -9.03% |
| Cc1cc(CSc2ccccc2)ccc1NC(=O)c1ccc(C)c([N+](=O)[O-])c1 | 7.16% |
| c1cnc2ccc(C(c3nnnn3C3CCCC3)N3CCN4CCCC4C3)cc2c1 (stereo not shown) | -19.5% |
| COc1ccc(-c2cn(CCCOCc3ccccc3)nn2)cc1 | -11.6% |
| CCOC(=O)C1=C(COC(=O)CNC(=O)c2ccc(C)cc2)NC(=O)NC1C (stereo not shown) | 14.1% |
| COc1cccc(NC(=O)CN(C)C(=O)c2c(-c3c(F)cccc3Cl)noc2C)c1 | 1.55% |
| CCCCc1cc(=O)oc2cc(OCC(=O)NCc3ccccn3)c(Cl)cc12 | 15.6% |
| CC(NC(=O)c1ccc(N2CCCC2)c([N+](=O)[O-])c1)c1ccc(S(N)(=O)=O)cc1 (stereo not shown) | 12.3% |
| O=C(Nc1cnn(Cc2ccc(F)cc2)c1)c1cc2nc(-c3ccco3)cc(C(F)(F)F)n2n1 | 13.9% |
| CC(=O)Nc1ccccc1OCC(=O)NCC(F)(F)F | 19.3% |
| Cc1cccc(NC(=O)Cn2nnc(C(=O)Nc3ccc(F)c(Cl)c3)c2N)c1 | 13.6% |
| CCC(CC)C(=O)Nc1cc(C(=O)OC)ccc1C(=O)OC | -1.71% |
| CC(C)Oc1ccc(C(=O)Nc2nnc(SCC(=O)N3CCOCC3)s2)cc1 | 12.5% |
| CCCCN(CCCC)Cc1ccc(C(=O)NNC(=O)Nc2ccc(F)cc2)o1 | -8% |
| Cc1cc(C(=O)COc2ccc(F)cc2Br)c(C)n1C | 8.9% |
| CCCCOC(=O)Nc1ccc(N(C)C)cc1 | 7.27% |
| O=C(NCC1CCCO1)/C(=C\c1ccccc1)NC(=O)c1ccccc1 (stereo not shown) | 9.36% |
| Cc1ccc(S(=O)(=O)NNC(=O)Nc2ccc(C)c(C)c2)c(C)c1 | -1.3% |
| CS(=O)(=O)N(CC(=O)NCCSCc1ccccc1)c1ccccc1F | 12.2% |
| Nc1nc(NC(=O)c2ccc(F)cc2)ns1 | 3.43% |
| COc1ccc(N2CCN(CCCNC(=O)Cn3c(=O)c4cccn4c4ccccc43)CC2)cc1 | -25.1% |

| Structure (SMILES) | hERG current change (%, negative = inhibition) at 1uM |
| --- | --- |
| O=C(COc1ccc2ccccc2c1)NC1CC1 | 5.85% |
| O=C(O)c1ccccc1-c1ccccc1C(=O)Nc1ccccc1-c1ccccc1 | 15.8% |
| CCOC(=O)c1cccc2c1-c1ccccc1/C2=N/O | 14% |
| COc1ccc(NC(=O)CSc2nc3c(c(=O)n2-c2ccc(F)cc2)SCC3)c(OC)c1 | -0.162% |
| C#CCOCCOCCOCCNc1nc(N2CCN(C(=O)Cn3cc(CCCC[NH3+])nn3)CC2)nc(N2CCN(C(=O)Cn3cc(CC(C)O)nn3)CC2)n1.[Cl-] (stereo not shown) | -15.9% |
| Cc1nnc(SCCN2C(=O)c3ccccc3C2=O)nc1C | 4.05% |
| O=C1CSC(c2cccnc2)N1Cc1ccc(Cl)cc1Cl (stereo not shown) | 9.22% |
| O=C(CN(C(=O)CCC(=O)Nc1ccccn1)c1ccc(F)cc1)NCCc1ccccc1 | 19.1% |
| CCOCCc1c(O)nc(SC)[nH]c1=O | 16.8% |
| COCCNC(=O)c1cn(C)c2ccc(S(=O)(=O)N3CCCC3)cc2c1=O | 8.14% |
| COc1cccc(C(C(=O)NC2CCCC2)N(C(=O)c2ccco2)c2cccc(C(C)=O)c2)c1OC (stereo not shown) | 17.6% |
| COc1ccc(OC)c(Nc2nc(NCCCN(C)C)nc(N)c2[N+](=O)[O-])c1 | 2.22% |
| COc1ccccc1N(CC(=O)N/N=C/c1ccc(SC)cc1)S(C)(=O)=O | 3.73% |
| CN1CCC(N(C)S(=O)(=O)c2ccc(F)cc2F)CC1 | 14.9% |
| CN(C)c1ccnc2sc3c(SCc4ccc(Cl)cc4)ncnc3c12 | 7.62% |
| CCC(C)N(C(=O)CSc1nc(C)c(C)c(C)c1C#N)C1CCS(=O)(=O)C1 (stereo not shown) | 3.66% |
| Cc1ccc(-n2c(Cn3ncc4ccccc4c3=O)n[nH]c2=S)cc1 | 7.15% |
| CC(=O)c1cc2c(cc1NS(=O)(=O)c1ccc(C)cc1)OCO2 | -5.31% |
| Cc1ccc(Cn2nc(C)c(NC(=O)c3cc(C)no3)c2C)cc1 | 9.09% |
| CC1(C)CC2(CC(c3ccccc3)Oc3cc(O)ccc32)NC(=S)N1 (stereo not shown) | 6.06% |
| O=C(Nc1ccc(NC(=O)C2CC2)nc1)c1ccccn1 | 8.25% |
